The full ranking holds about 1,100 sequences; the median of “thermal melting temperature (Tm) of peptide-HLA complex” is about 58, and the lowest 2% start at about 42. The list shows a part of the results.
Each sequence was assayed against HLA-A*02:01 (assay: thermal melting temperature (Tm) of peptide-HLA complex; higher = more thermostable pHLA complex). Conditions: C1R-A*02:01.
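Note: cell lysates heated 10 min at 37–73 °C, remaining pHLA pulled down with pan-class I antibody, peptides quantified by DIA-MS versus 37 °C, Tm where half the complex is lost.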

Row | Sequence | thermal melting temperature
1 | LLPELRDWGV | 59.1 °C
2 | GLLETTVQKV | 53.7 °C
3 | LLFPESIRV | 58.8 °C
4 | SLVQRVETI | 52.3 °C
5 | ILSKTETNV | 50.9 °C
6 | YQTEIGQTL | 52 °C
7 | AILETAPKEV | 58 °C
8 | HLINVEGVGV | 59.7 °C
9 | KLTENLVAL | 59 °C
10 | QMISRIEYI | 58.6 °C
11 | SLMSHAIEL | 60.7 °C
12 | AVYEHPSILSL | 57.6 °C
13 | ILISKLLGA | 58.9 °C
14 | FLHPEPFSI | 61.1 °C
15 | ALIEKLVEL | 64.4 °C
16 | KLLSVLAQV | 58 °C
17 | FAYDGKDYIAL | 46.3 °C
18 | GVLPNIQAV | 55.7 °C
19 | ALLGILQHV | 63.3 °C

Row | Sequence | thermal melting temperature
20 | QLHAGSLVSV | 59.3 °C
21 | GLWEEAYRV | 65.2 °C
22 | QLYNQIIKL | 56.1 °C
23 | NIIELVHQV | 57.1 °C
24 | SLVAVELEKV | 57.5 °C
25 | TLLEDGTFKV | 59.5 °C
26 | YLFSEALNAA | 60.8 °C
27 | VLFELSKTV | 44.4 °C
28 | VLIGEFLEKV | 46.1 °C
29 | IILEEGKEILV | 52.2 °C
30 | NLLPHAINL | 57.8 °C
31 | KLLNDEDQVVV | 53.6 °C
32 | KLQELNYNL | 60.1 °C
33 | RVLDINPQV | 57 °C
34 | FLDPRPLTV | 63.2 °C
35 | NIIPYITNV | 51.4 °C
36 | KISTITPQI | 47.1 °C
37 | ILAPVVKEI | 59.6 °C
38 | ALFPERITV | 61.6 °C

Row | Sequence | thermal melting temperature
39 | AIVDKVPSV | 61.5 °C
40 | MTDPIRILV | 41.9 °C
41 | KLDEAFEFV | 57.6 °C
42 | RLNEESGALL | 51 °C
43 | ALLGRIPSA | 57.6 °C
44 | VVIPGKVEEV | 54.8 °C
45 | ALRDVSEEL | 59.2 °C
46 | VLFEKEVNEV | 59.8 °C
47 | MLYPEVIQQV | 54.4 °C
48 | SLPELVHAV | 60.5 °C
49 | KLGSVPVTV | 59.1 °C
50 | TVADKIHSV | 55.7 °C
51 | LQLDPAQIYRV | 55.6 °C
52 | YQLGELVKV | 55.9 °C
53 | GLWPGAGTIRL | 61.1 °C
54 | TTFPRPVTV | 55.4 °C
55 | FLPETRIMTSV | 58.4 °C
56 | KIGSIIFQV | 56.8 °C
